Source: PubChem BioAssay (NCI)
“And” between values parts separate entries of the source, which are not always exact repeats. Identical values can stand only once.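 Grown in 96-well plates, cells were treated for 48 hours with each compound at five concentrations. Insufficient inhibition: endpoint recorded as highest concentration tested. GI50 = concentration required for 50% inhibition of growth. Definition used: TGI = concentration required for complete inhibition of growth.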

These compounds were tested on NCI-H322M lung (assay: growth of human tumour cells (NCI), 48 h).

Compared with `O=C(O)CCCOc1cc(-c2ccccc2F)nc2cc3c(cc12)OCO3`, `N=C(N)SCc1cccc2c(=O)cc(-c3ccccc3)oc12` is lower in TGI: greater than 100 µM for the first, 25.5 µM for the second.

Compared with `C=CC[C@@H]1C(=O)[C@@]2(O[Si](C(C)C)(C(C)C)C(C)C)CC[C@@H]1C[C@H]2NC(=O)OCC(Cl)(Cl)Cl`, `C=CCOC(=O)[C@@H]1C[C@@H](OC(C)(C)C)CN1C(=O)[C@@H]1[C@H]2OC(C)(C)O[C@H]2CN1C(=O)OCC1c2ccccc2-c2ccccc21` is lower in TGI: greater than 100 µM for the first, 32.7 µM for the second.

`O=C(CC(=O)C1CCOC1=O)C(=O)Nc1ccc(Cl)cc1Cl` (centres undefined) and `O=C1NC(N2CCCC(CO)C2)=N/C1=C\c1ccc(Cl)cc1` (centres undefined) cannot be ordered by TGI: greater than 100 µM for the first, greater than 100 µM for the second.

`O=C1CC(=O)N(CCc2ccccc2)S(=O)(=O)N1CCc1ccccc1` and `O=C1/C(=C/c2ccccc2)CN(C(=O)OCc2ccccc2)C/C1=C\c1ccccc1` cannot be ordered by TGI: greater than 100 µM for the first, greater than 31.6 µM for the second.

First: CC(=O)[O-].O=C([CH-]C(=O)c1ccccc1)c1ccccc1.O=C([CH-]C(=O)c1ccccc1)c1ccccc1.[Y+3]
Second: O=C(c1ccccc1)c1sc2c(=O)c(C(=O)c3ccccc3)c(C(=O)c3ccccc3)sc2c(=O)c1C(=O)c1ccccc1
The TGI of the first is lower: 27.8 µM for the first, greater than 100 µM for the second.

First: COc1cc(/C=C/c2cc(/C=C/c3ccc(O)c(OC)c3)oc(=O)c2)ccc1O
Second: COc1cc2c(cc1O)[C@@H]1Cc3c(cc(OC)c(OC)c3Oc3cc4c(cc3OC)CCN(C)[C@@H]4Cc3ccc(O)cc3)[C@H](C2)N1C
The TGI of the first is lower: 20.6 µM for the first, greater than 100 µM for the second.

Compared with `CC(C)C(/C=C/c1ccc(Br)cc1)=N\NC(N)=O`, `Cc1ccc(/C=C/C(=O)c2cc(CN(C)C)c(O)c(CN(C)C)c2)cc1` is lower in TGI: greater than 100 µM for the first, 59.2 µM for the second.

`Cc1ccc(O)c(C(=O)CCCC(=O)c2cc(C)ccc2O)c1` and `Cc1ccc(C)c(NC(=O)CCc2nc(=S)[nH][nH]2)c1` cannot be ordered by TGI: greater than 100 µM for the first, greater than 100 µM for the second.

`COC(=O)c1ccccc1/C=C1\Cc2cc(C)c(C)cc2C1=O` and `COc1ccccc1S(=O)(=O)Nc1ccc2c(c1)CN(C)C(=O)N2` cannot be ordered by TGI: greater than 100 µM for the first, greater than 100 µM for the second.

`O=C1CCc2c(sc3[nH]c(=S)n(Cc4ccccc4)c(=O)c23)C1` and `COc1cc2c(cc1OCc1ccccc1)NC(=S)[C@@H]1CCCN1C2=S` cannot be ordered by TGI: greater than 100 µM for the first, greater than 100 µM for the second.

`OC1CN2Cc3cc4c(cc3[C@]13C=C[C@@H](O)CC23)OCO4` (some centres undefined) and `CN1CCC23c4c5ccc(O)c4OC2c2[nH]c4ccccc4c2CC3(O)C1C5` (centres undefined) cannot be ordered by TGI: greater than 100 µM for the first, greater than 100 µM for the second.

Compared with `COc1ccc(C(=O)/C=C/c2ccc(OCC(=O)N3CCN(c4ccccc4)CC3)cc2)cc1`, `Cn1c2c(c3ccccc31)CCN(CCCCN1CCN(c3cccc(Cl)c3)CC1)C2=O` is lower in TGI: greater than 100 µM for the first, 31.7 µM for the second.

`CNC1C(O)C(OC2C(N)CC(N)C(OC3OC(C(C)O)C(O)C(O)C3N)C2O)OCC1(C)O` (centres undefined) and `COC(=O)[C@@]12OC[C@]34C([C@@H](O)C1O)[C@@]1(C)CC(=O)C(OC(=O)/C=C(/c5ccccc5)C(F)(F)F)=C(C)C1C[C@H]3OC(=O)[C@H](O)[C@H]42` (some centres undefined) cannot be ordered by TGI: greater than 100 µM for the first, greater than 50 µM for the second.

`CCN1C(=O)N(c2ccccc2)C2NN=c3s/c(=C4\C(=O)N(C(C)C)c5ccccc54)c(=O)n3C21` (centres undefined) and `O=C1OCc2cccc3c2-c2c1cccc2C(=O)OC3` cannot be ordered by TGI: greater than 100 µM for the first, greater than 100 µM for the second.

`O=C(NC(Nc1ccc(F)c(Cl)c1)(C(F)(F)F)C(F)(F)F)OCc1ccccc1` and `CC(C)NCCC(O)c1cc2ccccc2o1` (centres undefined) cannot be ordered by TGI: greater than 100 µM for the first, greater than 100 µM for the second.

`N#CCCN(CCN(C(=O)Nc1ccccc1)c1ccccc1)C(=O)Nc1ccccc1` and `N#CC(Cc1ccccc1Br)N(CCC1=CCCCC1)C(c1ccccc1)c1ccccc1` (centres undefined) cannot be ordered by TGI: greater than 100 µM for the first, greater than 100 µM for the second.

`C=C1CN(Cc2ccccc2)[C@@H]2CCCCC[C@H](C#N)[C@H]12` and `OC(c1ccccn1)C1CNc2ccccc21` (centres undefined) cannot be ordered by TGI: greater than 100 µM for the first, greater than 100 µM for the second.

`COc1ccc(/C=C2\N=C(NN)N=C2Cl)cc1` and `COC(=O)c1ccc(Cc2ccc(C(=O)OC)o2)o1` cannot be ordered by TGI: greater than 100 µM for the first, greater than 378 µM for the second.

`O=C(O)c1oc(C(=O)O)c(C(=O)O)c1C(=O)O` and `CCc1c(Cc2cc(C)cc(C)c2)n2c(nc1=O)SCC2CBr` (centres undefined) cannot be ordered by TGI: greater than 100 µM for the first, greater than 50 µM for the second.

With `C#Cc1cccc(Nc2nc3ccc([N+](=O)[O-])cc3nc2Nc2cccc(C#C)c2)c1` the TGI was 1.91 µM.

Compared with `CC(=O)[O-].O=C([CH-]C(=O)c1ccccc1)c1ccccc1.O=C([CH-]C(=O)c1ccccc1)c1ccccc1.[Y+3]`, `CCN1C(=O)N(c2ccccc2)C2NN=c3s/c(=C4\C(=O)N(C(C)C)c5ccccc54)c(=O)n3C21` (centres undefined) is 2.5-fold lower in GI50: 7.56 µM for the first, 3.01 µM for the second.

Going from `O=C1CCc2c(sc3[nH]c(=S)n(Cc4ccccc4)c(=O)c23)C1` to `C#Cc1cccc(Nc2nc3ccc([N+](=O)[O-])cc3nc2Nc2cccc(C#C)c2)c1`, the GI50 falls from 3.46 µM to 0.403 µM (8.6-fold).

With `COc1ccccc1S(=O)(=O)Nc1ccc2c(c1)CN(C)C(=O)N2` the GI50 was 6.31 µM and 5.49 µM.
